# Assay results taken from PubChem BioAssay AID686978 (National Center for Advancing Translational Sciences (NCATS), 2013).
# Among all 420,000 compounds or so, about 64,000 (15%) were called active. This list was built around the results that the source calls inconclusive (neither active nor inactive); the mix of calls is not that of the screen. Calls follow the shape of the dose curve; as a rule, active = well fitted inhibition curve with a large enough effect; inconclusive = small, poorly fitted or top-dose-only effect; inactive = flat fitted curve, though single readings scatter. No potency is given beside an inconclusive call; the fits are too rough.
# Assay: qHTS for Inhibitors of human tyrosyl-DNA phosphodiesterase 1 (TDP1): qHTS in cells in absence of CPT; also: nearly all actives have a fitted effect of over 55% in size
# Details: DT40 Tdp1-/- hTDP1 cells, no CPT, ATP luminescence, 48 h; series mostly up to 46.2 µM
# How it was run: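 Growth kinetics read by CellTiter-Glo luminescence after ≥48 hr at 37 °C. Cells: DT40 Tdp1-/- stably carrying human TDP1, 400 per well, compound exposure in the absence of CPT (DMSO vehicle).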
# Potency is read from the fitted curve at half-maximal effect; tags tell the direction and shape of the fitted curve.
row,SMILES,Potency
1,O=C(Nc1ncccc1Cl)C1COc2ccccc2O1 (configuration not stated),inactive
2,CCOC(=O)c1cc(-c2ccc(F)cc2)n(CC(=O)NC2CCCCC2)c1C,"inconclusive [inhibitor, single point]"
3,COc1ccc(C2/C=C\CN(C(=O)C3CCCC3)CC(=O)N2Cc2ccc(F)cc2)cc1 (configuration not stated),"inconclusive [inhibitor, partial curve, poor fit]"
4,COc1ccc(C(c2nnnn2Cc2ccccc2)N2CCN(c3nc4ccccc4s3)CC2)cc1OC (configuration not stated),active: 18.4 µM
5,C[C@@H]1ON(C)[C@H]2C[C@H]3c4cc(N5CCN(C)CC5)ccc4CCN3C(=O)[C@@H]12,inactive
6,O=C(O)/C=C/C(=O)Nc1cccc2cccnc12,inactive
7,CCc1nc2ccc(C(=O)N3CCN(CC)CC3)cc2nc1CC,inactive
8,CN(C)c1cccc2c(S(=O)(=O)NCc3ccc(S(N)(=O)=O)cc3)cccc12,"inconclusive [inhibitor, single point]"
9,CCCSc1nc2c(c(=O)[nH]c(=O)n2C)n1C,inactive
10,CC(C)(C)c1ccc(OCCC(=O)NC2=NCCS2)cc1,"inconclusive [inhibitor, partial curve]"
11,O=C(NCc1ccccc1Cl)c1ccc(S(=O)(=O)N2CCCC2)cc1,inactive
12,CCCCSc1nnc(-c2ccc(NC(=O)CCc3ccccc3)cc2)n1C,"inconclusive [inhibitor, single point]"
13,O=C(CCn1c(=O)oc2ccccc21)NCc1ccc2c(c1)OCO2,"inconclusive [inhibitor, single point]"
14,COc1ccccc1/C=C/C=N/NC(=O)CCn1nnc2ccccc21,"inconclusive [inhibitor, single point]"
15,NCC(=O)NCC(=O)NC[C@H]1O[C@@H](n2cnc3c(N)ncnc32)[C@H](O)[C@@H]1O,inactive
16,Oc1cccc2ccc(Nc3ccccn3)nc12,active: 3.66 µM
17,CCCNC(=S)N1CCC(NC(=O)c2ccc(OC)cc2)CC1,inactive
18,CS(=O)(=O)N1CCN(c2ccc(NC(=S)NC(=O)c3cccs3)cc2)CC1,inactive
19,COCc1ccc(C(=O)NC(C)c2cnn(-c3ccccc3C)c2C)o1 (configuration not stated),inactive
20,Cc1ccc2c(c1)cc(CN(Cc1ccc3c(c1)OCO3)C(=O)c1cnccn1)c1nnnn12,"inconclusive [inhibitor, partial curve, poor fit]"
21,COc1ccc(C2=C(Nc3ccc(F)cc3)c3ccccc3C2=O)cc1,"inconclusive [inhibitor, single point]"
22,COc1ccc(CNC(=O)c2cccc3c(-c4cccc(C(N)=O)c4)coc23)cc1OC,active: 5.17 µM
